Test results reported in PubChem BioAssay AID1671194 (National Center for Advancing Translational Sciences (NCATS), 2021).
In all, about 140,000 compounds went through this assay and about 240 (0.17%) were called active. The shares of active, inactive and inconclusive entries below differ from those in the screen. Calls come from the whole dose curve; as a rule, active = well fitted inhibition curve with a large enough effect; inconclusive = small, poorly fitted or top-dose-only effect; inactive = no such curve, though single readings can be large or run the other way. Potencies beside an inconclusive call are fits to weak or partial responses and may not hold up.

Assay: Primary qHTS assay for inhibitors of alpha-synuclein gene (SNCA) expression; note: nearly all actives have a fitted effect of over 45% in size;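 for activity change, negative = inhibition: plate controls were DMSO cells for no effect and cell-free wells for full effect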
Conditions: HEK-293 SNCA-luciferase knock-in, luminescence, 24 h; activity change, negative = inhibition: at 57.2 µM (top of the series) unless noted
Potency is the fitted concentration of half-maximal effect; tags give direction and shape of the fitted curve.

Row | SMILES | Potency | activity change, negative = inhibition
1 | COCCn1cnc2ccc(-c3ccccc3C)nc2c1=O | inconclusive: 12.6 µM [inhibitor, single point] | –
2 | Cn1cccc1C(=O)N1CCC[C@@]2(CCN(Cc3ccccc3)C2)C1 | inconclusive: 39.8 µM [inhibitor, single point] | –
3 | Cc1ccc(N2CCC(NC(=O)Cc3cccc(F)c3)C2=O)cc1 (configuration not stated) | inconclusive: 31.6 µM [inhibitor, single point] | –
4 | Cc1noc(C)c1S(=O)(=O)N1CCCC(c2[nH]ccc2C(N)=O)C1 (configuration not stated) | inconclusive: 35.5 µM [inhibitor, partial curve, poor fit] | –
5 | O=C(NCc1cccc(F)c1)c1cnc2n1CCN(CCc1ccccc1)CC2 | inconclusive: 56.2 µM [inhibitor, single point] | –
6 | Cc1ccc(S(=O)(=O)c2nnn3c2nc(NCc2ccc(F)cc2)c2sccc23)cc1C | inconclusive: 1 µM [inhibitor, full curve, poor fit] | –
7 | COc1ccc(Nc2cc(C(=O)NCc3ccccc3)c3ccccc3n2)cc1 | – | inactive: -5.03%
8 | Oc1ccc(-c2nc(C3CC3)nc3c2CCN(CC2CCCCC2)CC3)cc1 | – | inactive: 15.2%
9 | COc1ccc(-c2nc3sc(CCNC(=O)C(=O)Nc4ccc(C)cc4C)c(C)n3n2)cc1 | – | inactive: 27.4%
10 | CCC(CC)C(=O)N1CCC(O)(c2csc(CN3CCc4ccccc4C3)n2)CC1 | inconclusive: 56.2 µM [inhibitor, single point] | –
11 | CCOc1nccn2c(-c3ccc(CNC(=O)c4ccnn4C)cc3)cnc12 | inconclusive: 12.6 µM [inhibitor, single point] | –
12 | CC(C)CN1CCC[C@H]1c1nc(-c2ccnc(N3CCOCC3)c2)no1 | – | inactive: 1.32% [at 87.6 µM]
13 | COc1ccc(CC(=O)Nc2ccc3ncnc(N4CCCC4)c3c2)c(Cl)c1 | – | inactive: 8.09%
14 | CCOc1ccc(C(=O)N2CCC3(CC2)N(C)C(=O)CS3(=O)=O)cc1 | – | inactive: 1.9%
15 | CCOc1ccc2c(n1)CCN(C(=O)c1cccnc1)C2 | inconclusive: 2 µM [inhibitor, partial curve, poor fit] | –
16 | O=C(c1ccc2c(c1)OCO2)N1CCC(N2CCOC2=O)CC1 | – | inactive: -18.7%
17 | CCOc1cccc(CNC(=O)C2Cn3cccc3C(=O)N2Cc2ccccc2)c1 (configuration not stated) | inconclusive: 39.8 µM [inhibitor, single point] | –
18 | O=C(c1cccc(Cl)c1)N1CCC2(C1)NC(=O)N(Cc1ccc(Cl)cc1)C2=O (configuration not stated) | – | inactive: -21.9%
19 | CN1CCC2(CCC1=O)CN(Cc1cccc(Cl)c1Cl)CCN2C (configuration not stated) | inconclusive: 7.08 µM [inhibitor, single point] | –
20 | Cc1cccc(C(=O)NCC(=O)OCc2cc(=O)n3nc(C)sc3n2)c1 | inconclusive: 2.82 µM [inhibitor, single point] | –
21 | CC1(Cc2ccc3c(c2)OCO3)CCCN(CC(=O)NCc2ccco2)C1 (configuration not stated) | – | inactive: -18%
22 | CCOC(=O)c1c(-c2ccccc2)csc1NC(=O)c1cc(-c2cccc(Cl)c2)on1 | inconclusive: 2.24 µM [inhibitor, single point] | –
23 | CN(C)C(=O)c1cccnc1OC1CCN(C(=O)Cc2ccc(Cl)cc2)C1 (configuration not stated) | inconclusive: 2.82 µM [inhibitor, partial curve, poor fit] | –

Row | SMILES | Potency | activity change, negative = inhibition
24 | CCn1cc(C(=O)NCCCOC(C)C)c(=O)c2cc(S(=O)(=O)N(C)C3CCCCC3)ccc21 | inconclusive: 1.12 µM [inhibitor, full curve] | –
25 | Cc1noc(C)c1CC(=O)N1CCCC(c2noc(COc3ccccc3)n2)C1 (configuration not stated) | – | inactive: -2.96%
26 | CCSc1ccc(C(=O)Nc2ccc(-c3nc4ccc(C)cc4s3)cc2)cc1 | – | inactive: 38.7%
27 | COC(=O)c1c(SC)nc2ccccc2c1OCc1ccccc1Cl | – | inactive: -12.5%
28 | COc1ccc(-c2ccnc3ncnn23)c(F)c1 | – | inactive: 26.3%
29 | CCOc1ccc(CN2CCc3nc(N4CCN(c5ncccn5)CC4)ncc3C2)cc1OC | inconclusive: 8.91 µM [inhibitor, full curve, poor fit] | –
30 | Cc1ccc(-c2c(C(=O)N3CCN(c4cccc(C)c4)C(C)C3)oc(=O)c3ccccc23)cc1 (configuration not stated) | inconclusive: 39.8 µM [inhibitor, single point] | –
31 | COCCN1CCNc2nc(COc3cccc(F)c3)n(Cc3ccccc3)c2C1=O | – | inactive: -1.62% [at 87.6 µM]
32 | Cn1nc(C2CCCN(C(=O)CCC3CCCC3)C2)n(Cc2ccccc2)c1=O (configuration not stated) | – | inactive: -4.95%
33 | CCc1n[nH]c(CC2CCN(C(=O)c3ccccc3)CC2)n1 | inconclusive: 3.98 µM [inhibitor, single point] | –
34 | CCOC(=O)CC(NC(=O)c1cc2cc(Br)cc(OC)c2oc1=O)c1ccc(OC)cc1 (configuration not stated) | inconclusive: 8.91 µM [inhibitor, full curve, poor fit] | –
35 | COc1ccc(N2CC(NC(=O)COc3ccc(F)cc3)CC2=O)cc1OC (configuration not stated) | inconclusive: 0.447 µM [inhibitor, full curve, poor fit] | –
36 | CC(C)(C)OC(=O)N1CCC(c2c(C(=O)Nc3ccc4c(c3)OCCO4)cnn2-c2ccc(F)cc2F)CC1 | inconclusive: 39.8 µM [inhibitor, single point] | –
37 | CCC(=O)Nc1ccc(-c2c(-c3cc(OC)cc(OC)c3)nn(-c3ccc(C)cc3)c2OC(C)=O)cc1 | – | inactive: -7.15%
38 | Cc1ccccc1C(=O)NC[C@@H]1CC[C@H]2C[C@@H]1C2(C)C | – | inactive: 1.57% [at 87.6 µM]
39 | COc1ccc(CN2CCNc3cc(-c4ccccc4)ncc3C2)cc1 | inconclusive: 1.58 µM [inhibitor, full curve, poor fit] | –
40 | O=c1cc(-c2ccccn2)oc2c(-c3ccc(CO)cc3)nccc12 | inconclusive: 56.2 µM [inhibitor, single point] | –
41 | COc1ccc(Cn2c(=O)c(C(=O)N3CCN(C(=O)c4ccc(Cl)cc4)CC3)nc3cccnc32)cc1 | – | inactive: 10.1%
42 | CCC(=O)N1c2ccccc2CC1C(=O)NCc1cccc(OC)c1OC (configuration not stated) | inconclusive: 7.94 µM [inhibitor, single point] | –
43 | COc1ccc(CCC(=O)N2CC(c3nnc(C(C)C)o3)C3(CCOCC3)C2)cc1 (configuration not stated) | inconclusive: 39.8 µM [inhibitor, single point] | –
44 | Cc1cccc(OCC(=O)N2CCCN(c3cc(-c4ccc(Cl)cc4)[nH]n3)CC2)c1 | inconclusive: 14.1 µM [inhibitor, partial curve, poor fit] | –
45 | CCCc1noc(-c2ccn3c(CNC(=O)c4cccc(Cl)c4)nnc3c2)n1 | inconclusive: 25.1 µM [inhibitor, single point] | –
46 | CCOC(=O)C1CCCN(c2nc3c(S(=O)(=O)c4ccc(Br)cc4)nnn3c3ccsc23)C1 (configuration not stated) | inconclusive: 3.98 µM [inhibitor, single point] | –

Row | SMILES | Potency | activity change, negative = inhibition
47 | COC(=O)c1c(SC)nc2ccccc2c1OCc1ccc(Br)cc1 | inconclusive: 1.78 µM [inhibitor, partial curve, poor fit] | –
48 | COc1ccc(C(=O)NC[C@H]2Cn3c(-c4ccc(Cl)cc4)cnc3CO2)cc1 | inconclusive: 56.2 µM [inhibitor, single point] | –
49 | CCn1c(C)c(C)c2cc(C(=O)NCCCN3CCCCC3C)ccc21 (configuration not stated) | inconclusive: 15.8 µM [inhibitor, single point] | –
50 | CSCC(=O)N[C@H]1CCN2C(=O)c3cc(Br)ccc3NC(=O)[C@@H]2C1 | inconclusive: 35.5 µM [inhibitor, partial curve, poor fit] | –
51 | O=S(=O)(c1ccc(Cl)cc1)c1nc(-c2ccccc2Br)oc1NCc1ccccc1 | inconclusive: 39.8 µM [inhibitor, partial curve, poor fit] | –
52 | CN1c2cc(C(=O)Nc3ccc4c(c3)OCCO4)ccc2C(=O)N2CCCC21 (configuration not stated) | – | inactive: 42.9%
53 | Cc1ccc(C)c(OCCn2c(C3CC(=O)N(Cc4ccc(F)cc4)C3)nc3ccccc32)c1 (configuration not stated) | inconclusive: 12.6 µM [inhibitor, partial curve, poor fit] | –
54 | O=C(Cc1c[nH]c2ncc(-c3ccc(Oc4ccccc4)cc3)cc12)N1CCOCC1 | active: 25.1 µM | –
55 | Cc1noc(C)c1CC(=O)N1CCCC2(C1)Nc1cccnc1NC2=NC1CCCC1 (configuration not stated) | – | inactive: 24.1%
56 | Cc1ccc2c(c1)-c1c(c(C(=O)N3CCN(c4cc(C)ccc4C)CC3)nn1C)CS2 | inconclusive: 35.5 µM [inhibitor, single point] | –
57 | Cc1cccc(NC(=O)CN2C(=O)C(c3ccc(F)cc3)=NC23CCCCCC3)c1 | inconclusive: 25.1 µM [inhibitor, single point] | –
58 | CNCCNS(=O)(=O)c1cccc2cnccc12 | inconclusive: 1.78 µM [inhibitor, full curve] | –
59 | CC(=O)c1c(C)oc2c1cc(NS(=O)(=O)c1ccc(C(C)(C)C)cc1)c1ccccc12 | inconclusive: 15.8 µM [inhibitor, single point] | –
60 | COC(=O)c1ccc(NC(=O)CN(C)S(=O)(=O)c2ccc(Br)s2)cc1 | – | inactive: -27.6%
61 | CCOc1ccc(C(=O)NCCSc2c(C)[nH]c3ccccc23)cc1OCC | inconclusive: 14.1 µM [inhibitor, partial curve, poor fit] | –
62 | COc1ccc(-c2nc(C)nc3c2CN(C(=O)Nc2ccccc2)CC3)cc1 | – | inactive: 11.9%
63 | O=C1CC(c2noc(-c3ccc(-c4ccccc4)cc3)n2)CN1c1ccc(F)cc1 (configuration not stated) | – | inactive: -28.6%
64 | CC(=O)N1CCCc2cc(S(=O)(=O)N3CCC(C(=O)Nc4ccc(C)cc4Cl)CC3)ccc21 | inconclusive: 7.08 µM [inhibitor, single point] | –
65 | Cn1cc(-c2cnn3c(N)c(Br)c([C@H]4CCCNC4)nc23)cn1 | inconclusive: 1.52 µM [inhibitor, full curve] | –
66 | O=C(Cc1cccs1)NC1CCc2nnc(C3CC3)n2CC1 (configuration not stated) | inconclusive: 39.8 µM [inhibitor, single point] | –
67 | COc1cccc(C(=O)N2CCC(c3nn(-c4ccccn4)c(=O)[nH]3)CC2)c1 | – | inactive: 13.2%
